Source: US20160114017A1 (UNIVERSITY OF PITTSBURGH OF THE COMMONWEALTH SYSTEM OF …, published 2016)

Molecular target: T1, HLA-A2 on the cell surface (HLA-A2 transfected T2 cell line; SNB19 glioma cells) (human)
T1 construct: whole, on cells; Class I MHC on cells; also called HLA-A*0201
Assay: T2 cell HLA-A2 stabilisation, flow cytometry, peptide 1 nM overnight
Method: The binding capability of these modified peptides was assessed using an HLA-A2 transfected T2 cell line. Aliquots of T2 cells were incubated with modified peptides or IL-13Rα2₃₄₅₋₃₅₃ at 1 nM overnight, and then examined for the surface expression levels of HLA-A2 on T2 cells by flow cytometry. Since stable binding of HLA-A2 with peptide epitopes further stabilizes the surface expression of HLA-A2 (Francini et al., 2002; Alves et al., 2003), quantitative expression levels of HLA-A2, which is indicated by Mean Fluorescence Intensity (MFI) in Table 1, correlate with the binding affinity of the peptide-epitopes that are co-incubated with the T2 cells.

B1: IL-13Rα2-A1V9 peptide (W → A at P1, and I → V at P9) (peptide)
peptide: ALPFGFILV
notes: Synthetic modified peptide; also called IL-13Rα2345-353:1A9V
In the case of B1, the “Binding Index (MFI)” value is reported as 463 MFI.
